The assay deals with wild type eIF6 (eIF6^WT), purified. In words: SPR. On the technique in general: Surface plasmon resonance follows binding to a sensor surface in real time, without labels.

Consider 1 substance from paper PMC11602552.

In turn, “p38α, purified (a stretch of the chain, letters omitted) (enzyme; other documents disagree on this pair)” showed a Kd of 1160 nM.

A word on the Kd: it is the constant that tells how readily two partners part at equilibrium. High values mean lower affinity, low ones higher affinity.
